# Test results as given in the supplement of paper PMC11246515.
# Test: total protein half-life in vivo (active degradation + dilution); higher = more stable protein
# [1] = E. coli NCM3722 delta-clpP delta-lon delta-hslV, growth: N-lim chemostat, doubling time 6 h
# [2] = E. coli NCM3722 delta-clpP, growth: N-lim chemostat, doubling time 6 h
# [3] = E. coli NCM3722 delta-hslV, growth: N-lim chemostat, doubling time 6 h
# [4] = E. coli NCM3722 delta-lon, growth: N-lim chemostat, doubling time 6 h
# [5] = E. coli NCM3722 delta-smpB, growth: N-lim chemostat, doubling time 6 h
# [6] = wild type E. coli NCM3722, growth: C-lim chemostat, doubling time 3 h
# [7] = wild type E. coli NCM3722, growth: C-lim chemostat, doubling time 6 h
# [8] = wild type E. coli NCM3722, growth: C-lim chemostat, doubling time 12 h
# [9] = wild type E. coli NCM3722, growth: N-lim chemostat, doubling time 6 h
# [10] = wild type E. coli NCM3722, growth: N-lim chemostat, doubling time 12 h
# [11] = wild type E. coli NCM3722, growth: P-lim chemostat, doubling time 6 h
# [12] = wild type E. coli NCM3722, growth: P-lim chemostat, doubling time 12 h
Sequence,total protein half-life in vivo [1] [h],total protein half-life in vivo [2] [h],total protein half-life in vivo [3] [h],total protein half-life in vivo [4] [h],total protein half-life in vivo [5] [h],total protein half-life in vivo [6] [h],total protein half-life in vivo [7] [h],total protein half-life in vivo [8] [h],total protein half-life in vivo [9] [h],total protein half-life in vivo [10] [h],total protein half-life in vivo [11] [h],total protein half-life in vivo [12] [h]
MASENMTPQDYIGHHLNNLQLDLRTFSLVDPQNPPATFWTINIDSMFFSVVLGLLFLVLFRSVAKKATSGVPGKFQTAIELVIGFVNGSVKDMYHGKSKLIAPLALTIFVWVFLMNLMDLLPIDLLPYIAEHVLGLPALRVVPSADVNVTLSMALGVFILILFYSIKMKGIGGFTKELTLQPFNHWAFIPVNLILEGVSLLSKPVSLGLRLFGNMYAGELIFILIAGLLPWWSQWILNVPWAIFHILIITLQAFIFMVLTIVYLSMASEEH [P0AB98],6.3597 ± 0.0041,6 ± 0.46,6.43 ± 0.35,5.97 ± 0.19,6.41 ± 0.79,3.04 ± 0.043,5.318 ± 0.026,12.2 ± 0.71,5.99,11.7 ± 0.62,5.446 ± 0.051,12 ± 1.3
MATGKIVQVIGAVVDVEFPQDAVPRVYDALEVQNGNERLVLEVQQQLGGGIVRTIAMGSSDGLRRGLDVKDLEHPIEVPVGKATLGRIMNVLGEPVDMKGEIGEEERWAIHRAAPSYEELSNSQELLETGIKVIDLMCPFAKGGKVGLFGGAGVGKTVNMMELIRNIAIEHSGYSVFAGVGERTREGNDFYHEMTDSNVIDKVSLVYGQMNEPPGNRLRVALTGLTMAEKFRDEGRDVLLFVDNIYRYTLAGTEVSALLGRMPSAVGYQPTLAEEMGVLQERITSTKTGSITSVQAVYVPADDLTDPSPATTFAHLDATVVLSRQIASLGIYPAVDPLDSTSRQLDPLVVGQEHYDTARGVQSILQRYQELKDIIAILGMDELSEEDKLVVARARKIQRFLSQPFFVAEVFTGSPGKYVSLKDTIRGFKGIMEGEYDHLPEQAFYMVGSIEEAVEKAKKL [P0ABB4],6.94 ± 0.77,6.64 ± 0.56,7.03 ± 0.67,6.31 ± 0.26,5.674 ± 0.045,3.485 ± 0.02,6.46 ± 0.099,12.42 ± 0.062,5.87 ± 0.27,12.3 ± 0.31,6.32 ± 0.19,13.28 ± 0.046
MENLNMDLLYMAAAVMMGLAAIGAAIGIGILGGKFLEGAARQPDLIPLLRTQFFIVMGLVDAIPMIAVGLGLYVMFAVA,6.29 ± 0.21,6.13 ± 0.89,5.79 ± 0.12,4.94 ± 0.5,6 ± 0.6,3.37 ± 0.19,5.929 ± 0.0094,11.1 ± 2.1,5.88 ± 0.14,10.6 ± 2.8,6.16 ± 0.19,12.3 ± 0.87
MQLNSTEISELIKQRIAQFNVVSEAHNEGTIVSVSDGVIRIHGLADCMQGEMISLPGNRYAIALNLERDSVGAVVMGPYADLAEGMKVKCTGRILEVPVGRGLLGRVVNTLGAPIDGKGPLDHDGFSAVEAIAPGVIERQSVDQPVQTGYKAVDSMIPIGRGQRELIIGDRQTGKTALAIDAIINQRDSGIKCIYVAIGQKASTISNVVRKLEEHGALANTIVVVATASESAALQYLAPYAGCAMGEYFRDRGEDALIIYDDLSKQAVAYRQISLLLRRPPGREAFPGDVFYLHSRLLERAARVNAEYVEAFTKGEVKGKTGSLTALPIIETQAGDVSAFVPTNVISITDGQIFLETNLFNAGIRPAVNPGISVSRVGGAAQTKIMKKLSGGIRTALAQYRELAAFSQFASDLDDATRKQLDHGQKVTELLKQKQYAPMSVAQQSLVLFAAERGYLADVELSKIGSFEAALLAYVDRDHAPLMQEINQTGGYNDEIEGKLKGILDSFKATQSW [P0ABB0],6.41 ± 0.56,6.8 ± 1,6.21 ± 0.088,5.627 ± 0.0075,5.74 ± 0.22,3.23 ± 0.076,6.56 ± 0.27,11.6 ± 0.57,5.95 ± 0.18,11.3 ± 0.15,6.239 ± 0.024,13.3 ± 0.61
MSQHLPLVAAQPGIWMAEKLSELPSAWSVAHYVELTGEVDSPLLARAVVAGLAQADTLRMRFTEDNGEVWQWVDDALTFELPEIIDLRTNIDPHGTAQALMQADLQQDLRVDSGKPLVFHQLIQVADNRWYWYQRYHHLLVDGFSFPAITRQIANIYCTWLRGEPTPASPFTPFADVVEEYQQYRESEAWQRDAAFWAEQRRQLPPPASLSPAPLPGRSASADILRLKLEFTDGEFRQLATQLSGVQRTDLALALAALWLGRLCNRMDYAAGFIFMRRLGSAALTATGPVLNVLPLGIHIAAQETLPELATRLAAQLKKMRRHQRYDAEQIVRDSGRAAGDEPLFGPVLNIKVFDYQLDIPDVQAQTHTLATGPVNDLELALFPDVHGDLSIEILANKQRYDEPTLIQHAERLKMLIAQFAADPALLCGDVDIMLPGEYAQLAQLNATQVEIPETTLSALVAEQAAKTPDAPALADARYLFSYREMREQVVALANLLRERGVKPGDSVAVALPRSVFLTLALHAIVEAGAAWLPLDTGYPDDRLKMMLEDARPSLLITTDDQLPRFSDVPNLTSLCYNAPLTPQGSAPLQLSQPHHTAYIIFTSGSTGRPKGVMVGQTAIVNRLLWMQNHYPLTGEDVVAQKTPCSFDVSVWEFFWPFIAGAKLVMAEPEAHRDPLAMQQFFAEYGVTTTHFVPSMLAAFVASLTPQTARQSCATLKQVFCSGEALPADLCREWQQLTGAPLHNLYGPTEAAVDVSWYPAFGEELAQVRGSSVPIGYPVWNTGLRILDAMMHPVPPGVAGDLYLTGIQLAQGYLGRPDLTASRFIADPFAPGERMYRTGDVARWLDNGAVEYLGRSDDQLKIRGQRIELGEIDRVMQALPDVEQAVTHACVINQAAATGGDARQLVGYLVSQSGLPLDTSALQAQLRETLPPHMVPVVLLQLPQLPLSANGKLDRKALPLPELKAQAPGRAPKAGSETIIAAAFSSLLGCDVQDADADFFALGGHSLLAMKLAAQLSRQVARQVTPGQVMVASTVAKLATIIDAEEDSTRRMGFETILPLREGNGPTLFCFHPASGFAWQFSVLSRYLDPQWSIIGIQSPRPNGPMQTAANLDEVCEAHLATLLEQQPHGPYYLLGYSLGGTLAQGIAARLRARGEQVAFLGLLDTWPPETQNWQEKEANGLDPEVLAEINREREAFLAAQQGSTSTELFTTIEGNYADAVRLLTTAHSVPFDGKATLFVAERTLQEGMSPERAWSPWIAELDIYRQDCAHVDIISPGTFEKIGPIIRATLNR,–,–,–,–,3.85,3.17 ± 0.14,7.52,15.2,–,5.32,4.99 ± 0.083,9.11
MTDLFSSPDHTLDALGLRCPEPVMMVRKTVRNMQPGETLLIIADDPATTRDIPGFCTFMEHELVAKETDGLPYRYLIRKGG [P0A890],> 8,–,–,–,–,–,6.16,–,4.32,7.48,5.38,11.6

# ± gives the standard deviation of the averaged measurements.
